# According to the supplement of paper PMC10681739:
# ± gives the standard deviation of the averaged measurements. In all, about 4,000 sequences were measured (“arbitrary fluorescence units”: median about 830, highest 2% from about 6,500 on). This part holds few or none of the hits.
# Biological target: RUNX1 (UniProt Q01196)
# Assay: RUNX1 binding intensity (PBM fluorescence), RUNX1 alone (arbitrary fluorescence units); higher = stronger binding
# Conditions: RUNX1 concentration 2 nM; ETS1 concentration 0 nM
# Procedure: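 gcPBM on 36-bp genomic-derived probes (partner site mutated) containing one RUNX1 site and no ETS1 site. Recombinant human RUNX1 (2 nM) was incubated alone or with ETS1 (25 nM) and detected by anti-RUNX1 antibody fluorescence. Values are medians over 4 replicate spots (not normalised). The probes sit in constant array flanks that are not printed.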
# 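Also: Full-length recombinant human RUNX1 bound to double-stranded DNA microarray spots, detected with an Alexa488-labelled secondary antibody after the anti-RUNX1 primary, read as scanned spot fluorescence.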
# Sequence of UniProt Q01196 (Q01196 whole entry): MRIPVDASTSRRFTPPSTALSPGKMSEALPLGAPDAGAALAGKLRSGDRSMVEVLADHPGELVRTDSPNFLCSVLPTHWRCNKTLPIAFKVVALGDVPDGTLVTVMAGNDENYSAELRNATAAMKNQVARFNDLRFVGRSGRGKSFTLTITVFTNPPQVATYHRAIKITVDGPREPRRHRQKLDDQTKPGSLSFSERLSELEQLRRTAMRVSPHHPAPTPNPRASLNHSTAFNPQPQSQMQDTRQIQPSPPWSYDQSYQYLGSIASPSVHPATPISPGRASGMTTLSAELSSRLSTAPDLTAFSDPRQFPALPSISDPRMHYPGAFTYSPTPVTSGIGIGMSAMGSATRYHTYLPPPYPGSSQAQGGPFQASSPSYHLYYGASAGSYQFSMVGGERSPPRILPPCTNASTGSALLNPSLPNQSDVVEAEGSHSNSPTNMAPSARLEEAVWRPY
row,Sequence,RUNX1 binding intensity
1,AAATTCTTGAGGTTACTTTGGAGGCGTATGGATGGG,835
2,CACCGACCGTAAGGGCCCCAAGGATCCCCGCAGCAG,777
3,GGGGGGAGGTGGCGCCACCAGGTGGTGGTTGCTTTG,782
4,ACTGCGGCTGAGACACAGAAGGGAAAGGCTGTGACC,762
5,GACTGGCTGCGGGAGGGGTTTAGGCTTCGGCCCCCA,855
6,GGGCGCCCGCGGTTTAGAAACTACATTGCCCATGAG,1330
7,CAAGCCACCTCCTTTCTTGCTCCCACAACCTGTGTT,1220
8,GAAGTGGTGGCGGCCGCAGGCCAGGCAGGACAAGTG,726
9,GAGGGAGGTCCTCGGGCGTCTCCTTGTGGCGGCGGG,683
10,AAACCAGAGGCAGTGGATTCCAACCACAAACCTCAC,1040
11,CTCCTGAGGCAGTAGTTACAGACACCACAGCGGAGG,832
12,CAACTATAACCACAACTACGGCCAACAGCCGAGTGC,3470
13,TGCTTAGCGGGACGTGCTTACACCACAAAACAAGAC,730
14,CGGCACCACTGCCGAGTGGAGCACGCGGTGGCCGAG,995
15,CTCGGCGCCCGCGGTCCATGGACCCGAACCTCGGGC,735
16,CTTCCTTCCCTTCGTTCTGCTCCCTCCCACAGCCGC,2240
17,CTGTGGTGTCGGAGGCTGTGACGTCGGGAGGTAAGT,799
18,CAGCAAGCCACAGGCAGTAAACATTGCCTGTCCCCA,880
19,CCACCCACTTGCTGCCCTAGCTAGTGTGGTATTTTT,906
20,GACTGGTTGCCTGGTTTTGATGTGGTTTAGAGAAAA,1060
21,GTTTTCAGGTTGTGGTGCGTGTAGGAGGTGCTCTGG,939

row,Sequence,RUNX1 binding intensity
1,CCTGTGGTGAGGCCAGCAGAGGCTCAGCAAGGGAGC,728
2,CTGGGCAGCAAAGGACCTGGCCTCCCAGCCCACAGG,778
3,CAACCAGCCCCACAGCTGAGCTTGCGCTCAGCTCTC,929
4,CAGCGGCGGCTGCGGCGGTGGCGGCAGTGGAGTGGG,832
5,GATGACTGCCTCAGTTCAGGGCTATGTGCGGGGGAG,786
6,GTGGGGCGGGCTTCAGGCGCTCCCACCGCGAGCCGA,659
7,ACGCGTGCGGGGGAGGTGGCTTCTTACGGCCGGGCC,770
8,GGGACAACCGCGGGCCTCGCTCCTCCCCGTACGGGG,839
9,AGCGACAGCGGCTGCTCTCTGGCCGCAACATTCTTT,884
10,AACCAGTTCATCATGGGAGCTGCTGCGGGTTCTTCA,733
11,GTTGAGTTCCAGGGGAGGTTGAGTTCCTGCGGTCAA,1040
12,ACCCCTTCAGCAAGCACTCACCCACAGCCAGGCTCC,980
13,GAGGGCTGCTTGCTGCTCTGTGGAGGCCGCAGCGGG,709
14,TTGCTTTATCACCTCCTGTTTGAGGTTTATATCCAT,1170
15,ACATTCTTACGGTTGGACCTCCGCGGTCAGCGCTGT,1130
16,TCGTGCAAATTCCCCAAATGTGGGAAGCTCGACTGC,700 ± 27
17,ACGTCGTCGCCGCAGGGCCCCTTGCGCCTCCGTTCC,1030
18,GGGCGGTTACCGAGGCCCGCCACCGCCTGAAGGGTG,752
19,CAGGTGTTCAAGAAACAAAACCACAGACTTTTTCAC,3140
20,GTCCCCGACTTTCGCTCTCGGTTGGTGGTTGGCTTT,918
21,AGCGGTATGCTGTTGTCTTACTGTGGTGACGTCATC,727

row,Sequence,RUNX1 binding intensity
1,CTTAAACCGGCCACAACAGCTCACCCATCGTGTCGG,842
2,GCAGTCGAGCTTCCCACATTTGGGGAATTTGCACGA,699 ± 20
3,TGCCCGCGGGCCGCAGCCACCGTATTTGCGCGTTTT,811
4,CTGGGAGGATCTGACCTCAACCTTCCAGCTGCACCC,839
5,TCCCTTGCTCCTCCCTCAGCCATATGCGGTGCTGTA,1050
6,GCTAACCACCGACCTCGAAGCAGAGGAGGTGCAGTC,857
7,CCTCCCGGCTTTCGTTCCTTGACCACCTCCTTCTCG,1980
8,CGGCCGCCCGGCCTCCTCTCCCGCCGCAGCCCTGGC,863
9,AGCGCCGGGAGTGTGTCTGCGTAAAACTGCGGCTCG,739
10,GCCTGGTGGCTGAAAGGCTGCGGCCCCGCGCCAGAG,761
11,CTCAATTCAGACCACCAACACGGCCGTAAGCAACTC,868
12,TTGACCACAAAGGAAGGGCAGATGGCACGAAACAGG,1110
13,CCTGGGAGCTGCTGCGGGTTCTTCCGAGAATCCGAA,846
14,GTGCTGTGACCACAACGTACACAGCAGCAAGGAAGG,1510
15,GGCAGGCACCACAGAAGCCGGGCTCCCGTCTGACTG,682
16,TGCCATCTTGTGGTGGCGCCGGGTTTGCGCTCAGGC,778
17,GAGCACATGAAAAGCTGGTGCCAACCACAAGTGCTT,861
18,TCTGCGGGAGAGGCTGCAGCGGAGGCCGAAGCAGGA,731
19,TCTCTTCTCCCCAGCCGCCCGAGACCACAGCCACTC,1600
20,ACAGCGCCTCTGCCTGCTCTACCACATCTGATGTCC,907
21,AGTGTGGTAGAGAGATATTTTTTGTCTCCGTGTTGG,796
